# Measurements reported in PubChem BioAssay AID686971 (National Center for Advancing Translational Sciences (NCATS), 2013).
# Out of some 360,000 compounds screened, about 7,500 (2.1%) were called active. About 8% were inconclusive and are not listed. The call rests on the fitted dose curve; in most records, active means well fitted cell-killing curve with a large enough effect; inconclusive means small, poorly fitted or top-dose-only effect, or effect the other way, or another doubt; inactive means no such curve, though single readings can be large or run the other way. Only a part is listed here, and it is no random draw.
# Assay: qHTS for induction of synthetic lethality in tumor cells producing 2HG: qHTS for the HT-1080-IDH1KD cell line;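 on activity, negative = toxicity: 0% = DMSO wells and -100% = cell-free medium wells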
# Conditions: HT-1080 IDH1 knockdown viability, ATP luminescence, 48 h; series mostly up to 46.1 µM; activity, negative = toxicity: at the top concentration
# Summary of the method: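 Using the IDH1-knockdown HT-1080 line run in the same batch and compound series as the NT line, viability after 48 h at 37 °C was determined by CellTiter-Glo luminescence and expressed as % activity.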
# Potency means the concentration at half of the fitted maximal effect.
Structure (SMILES),Potency,"activity, negative = toxicity"
CC(C(=O)Nc1ccccc1)c1ccc(-c2ccccc2)c(F)c1 (stereo not given),active: 20.6 µM,
O=C(/C=C/c1ccco1)NC(=S)Nc1ccccc1O,,inactive: -30%
Cc1ccc(/C=C2\SC(=S)N(CCC(=O)NCCCN3CCOCC3)C2=O)cc1,,inactive: -12.9%
Cc1ccc([C@H]2C[C@@H](O)[C@H](n3cc(COC(=O)c4ccccc4)nn3)CN2Cc2cccs2)cc1,,inactive: -3.46%
Brc1ccc2[nH]c3nc(SCCN4CCOCC4)nnc3c2c1,,inactive: 0%
COc1ccc(NC(=O)CCN2C(=O)C3C4C=CC(C4)C3C2=O)cc1 (stereo not given),,inactive: -11.5%
Cc1noc(NS(=O)(=O)c2ccc(N/C=C/C(=O)c3ccc4c(c3)OCO4)cc2)c1C,,inactive: -23.4%
Cc1[nH]c2ccccc2c1/C=C/c1nc2ccccc2c(=O)[nH]1,active: 16.4 µM,
C=CC[C@@H](CC(=O)N[C@H](CO)Cc1ccccc1)C(=O)N[C@@H](COC(=O)[C@@H](CC=C)CC(=O)OC(C)(C)C)Cc1c[nH]c2ccccc12,,inactive: -8.79%
Cc1ccc2nc(C(C)(C)C)c(Cc3cccc(F)c3)n2c1,active: 23.1 µM,
CCOC(=O)N1CC=C2C(C#N)=C(N)C(C#N)(C#N)[C@H](c3cccs3)[C@H]2C1,,inactive: -20.9%
Cc1cccc(COCC(CC(C)C)N2CCN(C(=O)c3ccc(C(F)(F)F)cc3)CCC2=O)c1 (stereo not given),,inactive: -4.74%
COc1cc(Nc2ccccn2)cc(C(=O)Nc2cccc(C(F)(F)F)c2)c1,,inactive: -1.01%
COC(=O)/C(=C1\Oc2ccc(C(C)(C)C)cc2S1)C(F)(F)F,,inactive: 11%
COCCCNC(=O)C(=O)Nc1ccc2c(c1)N(S(=O)(=O)c1cccs1)CCC2,active: 2.31 µM,
CC(=O)OCC(=O)C1(O)CCC2C3CCC4=CC(=O)C=CC4(C)C3C(O)CC21C (stereo not given),,inactive: 26.2%
COc1cc2c(c(OC)c1OC)-c1ccc(OC)c(=O)cc1C(NC(=O)c1ccccc1)CC2 (stereo not given),active: 0.0206 µM,
O=C1N[C@H](Cc2c[nH]c3ccccc23)COC(=O)[C@H](Cc2ccc(F)cc2)C/C=C\C[C@H]1CC(=O)N(CCO)Cc1ccccc1,,inactive: -29.2%

Structure (SMILES),Potency,"activity, negative = toxicity"
C#CCN1C=C(C(=O)OCC)C(C)N(Cc2ccccc2I)S1(=O)=O (stereo not given),active: 20.6 µM,
CCN(CC)CCN1C(=O)Cn2c(C)c(C)c3cccc1c32,,inactive: 1.28%
COc1ccc2c3c([nH]c2c1)C1CC2C(CC(O)C(OC)C2C(=O)O)CN1CC3 (stereo not given),,inactive: -4.05%
Cc1cn(C2C=CC(CO)O2)c(=O)[nH]c1=O (stereo not given),,inactive: 21.3%
CC(=O)n1cc([C@H]2C=C(C(=O)Nc3ccccc3)O[C@@H](OCCCCO)C2)c2ccccc21,,inactive: -1.57%
COc1ccc(-c2csc(N3C(=O)C4C5c6ccccc6C(c6ccccc65)[C@@H]4C3=O)n2)cc1 (stereo not given in full),,inactive: 2.71%
CC(=O)Nc1cc(-c2ccc(C(=O)NC3CC3)cc2)cn2c(-c3ccc(F)c(Cl)c3)cnc12,active: 18.4 µM,
CCCc1ccc(OCC(O)CN2CCN(c3ccccc3)CC2)cc1 (stereo not given),,inactive: -24.8%
Cc1ccsc1/C=N/NC(=O)c1cc(-c2ccncc2)nc2ccccc12,active: 0.92 µM,
CCO[C@@H]1OC(C(=O)NC2CC2)=C[C@H](c2ccccc2)[C@H]1CCCO,,inactive: -5.53%
C=CC[C@@H](CC(=O)N[C@H](CO)Cc1ccccc1)C(=O)NC[C@H](OC(=O)[C@@H](CC=C)Cc1ccc(F)cc1)c1ccccc1,,inactive: -9.09%
O=C(Nc1nnc([C@@H]2C[C@H](O)[C@@H](CO)O2)s1)c1cccc(Cl)c1,,inactive: 17.5%
CC1(C)O[C@@H]2CC3C4C[C@H](F)C5=CC(=O)C=CC5(C)C4C(O)CC3(C)[C@]2(C(=O)CO)O1 (stereo not given in full),,inactive: 18.9%
Cc1ccc2c(c1)c1c3n2CCNC3CCC1 (stereo not given),,inactive: -7.74%
O=[N+]([O-])C(/C=C(\Cl)[N+](=O)[O-])=C(N1CCCCC1)N1CCCCC1,,inactive: -4.86%
CCO[C@@H]1OC(C(=O)Nc2ccccc2)=C[C@H](c2csc3ccccc23)[C@H]1CCCO,,inactive: -4.9%
O=C1N[C@@H](c2ccccc2)COC(=O)[C@@H](Cc2ccc(F)cc2)C/C=C\C[C@@H]1CC(=O)N(CCO)Cc1ccccc1,,inactive: -2.59%
